Test [1] concerns HSkMC (human skeletal muscle cells). In words: cytotoxicity call (relative viability < 0.9). Particulars: 10 µM.
Test [2] concerns HepG2. In words: cytotoxicity call (relative viability < 0.9). Particulars: 10 µM.
Test [3] deals with S. aureus RN4220. In words: growth inhibition call (relative growth <= 0.2). Particulars: 50 µM.

This is one part of the list.

Regarding `Cc1cnc(C(=O)Nc2nn[nH]n2)cn1`, the cytotoxicity call in test [1] and in test [2] was “inactive” throughout. The growth inhibition call in test [3] was “inactive”.
Take `CC(C)NC(=O)Nc1ccc2c(c1)C(=O)N([C@@H](C)CO)C[C@@H](C)[C@H](CN(C)Cc1ccc(C(F)(F)F)cc1)OCCCC[C@H](C)O2`: the cytotoxicity call in test [1] and in test [2] was “inactive” throughout. The growth inhibition call in test [3] is “inactive”.
Consider `Cc1ccc(S(=O)(=O)N(C)C[C@H]2Oc3c(NS(=O)(=O)c4ccccc4)cccc3C(=O)N([C@H](C)CO)C[C@@H]2C)cc1`, for which the cytotoxicity call in test [1] and in test [2] was “inactive” in each case. In addition, the growth inhibition call in test [3] was “inactive”.
Consider `C[C@@H]1CN([C@H](C)CO)C(=O)c2cc(NS(=O)(=O)c3cn(C)cn3)ccc2O[C@@H]1CN(C)CC1CC1`, for which the cytotoxicity call in test [1] and in test [2] was “inactive” each time. Also, the growth inhibition call in test [3] was “inactive”.
With `C[C@H]1CN([C@@H](C)CO)S(=O)(=O)c2ccc(C3=CCCC3)cc2O[C@H]1CN(C)C(=O)C1CCOCC1`, the cytotoxicity call in test [1] and in test [2] was “inactive” throughout. For the same compound, the growth inhibition call in test [3] is “inactive”.
As for `CCC12CCCN3CCc4c(n(c5ccccc45)C(O)(C(=O)OC)C1)C32` (configuration not stated), the cytotoxicity call in test [1] and in test [2] was “inactive” each time. Moreover, in test [3], the growth inhibition call was “inactive”.
In the case of `CN(CCO)S(=O)(=O)c1cccc(C(=O)O)c1`, the cytotoxicity call in test [1] and in test [2] was “inactive” each time. In addition, the growth inhibition call in test [3] is “inactive”.
As to `CCC(=O)N(C)C[C@H]1Oc2ncc(C#C[C@H](C)O)cc2C(=O)N([C@@H](C)CO)C[C@@H]1C`, the cytotoxicity call in test [1] and in test [2] was “inactive” each time. Moreover, the growth inhibition call in test [3] was “inactive”.
In the case of `C[C@@H]1CN([C@@H](C)CO)C(=O)c2cc(NC(=O)c3ccccc3)ccc2O[C@@H](C)CCCCO[C@@H]1CN(C)S(=O)(=O)c1ccc(Cl)cc1`, the cytotoxicity call in test [1] and in test [2] was “inactive” throughout. Besides, in test [3], the growth inhibition call is “inactive”.
Turning to `COCC#Cc1ccc2c(c1)O[C@@H](CN(C)Cc1ccc(F)cc1)[C@@H](C)CN([C@@H](C)CO)S2(=O)=O`, the cytotoxicity call in test [1] and in test [2] was “inactive” each time. For the same compound, the growth inhibition call in test [3] was “inactive”.
As for `CSc1cccc2sc(Nc3ccc(Cl)cc3)nc12`, the cytotoxicity call in test [1] and in test [2] was “inactive” each time. For the same compound, the growth inhibition call in test [3] is “active”.
For `COc1ccc(-c2cnc3c(c2)C(=O)N([C@@H](C)CO)C[C@H](C)[C@H](CN(C)C(=O)Cc2ccccn2)O3)cc1`, the cytotoxicity call in test [1] and in test [2] was “inactive” each time. In addition, the growth inhibition call in test [3] was “inactive”.
For `O=C(C[C@H]1CC[C@@H](NC(=O)CN2CCOCC2)[C@H](CO)O1)NCc1cccc(F)c1`, the cytotoxicity call in test [1] and in test [2] was “inactive” in each case. In test [3], the growth inhibition call is “inactive”.
Regarding `C[C@@H]1CCCCO[C@@H](CN(C)Cc2ccc3c(c2)OCO3)[C@H](C)CN([C@H](C)CO)C(=O)c2cc(NC(=O)Nc3ccccc3)ccc2O1`, the cytotoxicity call in test [1] and in test [2] was “inactive” in each case. Also, in test [3], the growth inhibition call is “inactive”.
Turning to `C[C@@H]1CN([C@@H](C)CO)C(=O)Cc2cc(NS(=O)(=O)c3ccc(F)cc3)ccc2O[C@@H]1CN(C)S(=O)(=O)c1ccccc1`, the cytotoxicity call in test [1] and in test [2] was “inactive” each time. Besides, the growth inhibition call in test [3] was “inactive”.
On to `C[C@H]1CN([C@@H](C)CO)C(=O)c2cc(NC(=O)CCN3CCOCC3)ccc2O[C@@H]1CN(C)C(=O)Nc1ccccc1`, for which the cytotoxicity call in test [1] and in test [2] was “inactive” each time. Moreover, the growth inhibition call in test [3] is “inactive”.
For `C[C@H]1O[C@@H](O[C@@H]2[C@@H](OC(=O)/C=C/c3ccc(O)c(O)c3)[C@H](CO)O[C@H](OCCc3ccc(O)c(O)c3)[C@@H]2O[C@H]2OC[C@@H](O)[C@@H](O)[C@@H]2O)[C@@H](O)[C@@H](O)[C@@H]1O`, the cytotoxicity call in test [1] and in test [2] was “inactive” throughout. Further, the growth inhibition call in test [3] was “inactive”.
As to `C[C@@H]1CN([C@H](C)CO)C(=O)c2cc(NC(=O)C3CC3)ccc2O[C@@H]1CN(C)Cc1ccc2c(c1)OCO2`, the cytotoxicity call in test [1] and in test [2] was “inactive” in each case. Also, in test [3], the growth inhibition call is “inactive”.
As for `O=C(C[C@H]1CC[C@H]2[C@@H](COC[C@H](O)CN2S(=O)(=O)c2ccc(Oc3ccccc3)cc2)O1)NCCN1CCCCC1`, the cytotoxicity call in test [1] and in test [2] was “inactive” in each case. For the same compound, the growth inhibition call in test [3] was “inactive”.
Take `COc1ccc(CN(C)C[C@H]2Oc3ccc(NS(=O)(=O)c4c(C)noc4C)cc3C(=O)N([C@H](C)CO)C[C@@H]2C)cc1`: the cytotoxicity call in test [1] and in test [2] was “inactive” each time. In test [3], the growth inhibition call was “inactive”.
On to `C[C@H](CO)N1C[C@H](C)[C@@H](CN(C)Cc2ccc(F)cc2)Oc2cc(C#CCN(C)C)ccc2S1(=O)=O`, for which the cytotoxicity call in test [1] and in test [2] was “inactive” in each case. Moreover, in test [3], the growth inhibition call is “inactive”.
In the case of `C[C@H](CO)N1C[C@H](C)[C@@H](CN(C)Cc2ccc(C(=O)O)cc2)Oc2ccc(NC(=O)C3CC3)cc2CC1=O`, the cytotoxicity call in test [1] and in test [2] was “inactive” in each case. Moreover, in test [3], the growth inhibition call was “inactive”.
Turning to `C[C@@H]1CN([C@@H](C)CO)C(=O)c2cccc(NS(C)(=O)=O)c2O[C@@H]1CN(C)C(=O)Nc1ccccc1`, the cytotoxicity call in test [1] and in test [2] was “inactive” throughout. Besides, the growth inhibition call in test [3] is “inactive”.
In the case of `NC(=O)CN1CCOCC1`, the cytotoxicity call in test [1] and in test [2] was “inactive” in each case. Besides, in test [3], the growth inhibition call was “inactive”.
Consider `COc1ccc(NC(=O)N(C)C[C@@H]2OCCCC[C@@H](C)Oc3ccc(NC(=O)c4ccncc4)cc3C(=O)N([C@@H](C)CO)C[C@H]2C)cc1`, for which the cytotoxicity call in test [1] and in test [2] was “inactive” each time. In addition, the growth inhibition call in test [3] is “inactive”.
For the compound `C[C@H]1CN([C@@H](C)CO)C(=O)c2cc(NC(=O)CCC(F)(F)F)ccc2O[C@@H]1CN(C)Cc1ccc(C(F)(F)F)cc1`, the cytotoxicity call in test [1] and in test [2] was “inactive” throughout. In addition, the growth inhibition call in test [3] was “inactive”.
Take `Cn1cnc(S(=O)(=O)N2C[C@@H](O)COC[C@H]3O[C@@H](CC(=O)NCc4cc(F)cc(F)c4)CC[C@@H]32)c1`: the cytotoxicity call in test [1] and in test [2] was “inactive” each time. Moreover, in test [3], the growth inhibition call was “inactive”.
`O=C(C[C@H]1C[C@H]2c3cc(NS(=O)(=O)c4ccc(F)cc4)ccc3O[C@H]2[C@H](CO)O1)NCCc1ccccc1`: the cytotoxicity call in test [1] and in test [2] was “inactive” in each case. The growth inhibition call in test [3] is “inactive”.
Consider `C[C@@H]1CN([C@H](C)CO)C(=O)c2cc(NC(=O)Nc3ccc(C(F)(F)F)cc3)ccc2O[C@@H](C)CCCCO[C@@H]1CN(C)S(=O)(=O)c1cn(C)cn1`, for which the cytotoxicity call in test [1] and in test [2] was “inactive” throughout. Besides, the growth inhibition call in test [3] was “inactive”.

(Values after the antibiotic and cytotoxicity screens of Wong et al. (2023).)
